Drawing on PMC12136788, this text covers binding signal for 22 molecules.

The other results are listed elsewhere or left out.

Sequences and labels used below:
B1: chr5:78475949:78476050:+|3pUTR|ENSG00000085365|msi1|FALSE|unique (ssRNA)
RNA: GGGAGUUCUACAGUCCGACGAUCACCCACUGAAAAUUAAUAAUGGUACUUAUGAUUAAAAACGCAUUUAAUACUAACUGCAGUAGUUCUUUCAAGAAUCUUUAGAGAUAAGGAUUGCACAUUGGAAAAGUAAACCAUGUUUCACAACAGAGGAUUGAGCAUCA
B2: chr12:133204733:133204837:+|3pUTR|ENSG00000090612|unk|total|mutant (ssRNA)
RNA: GGGAGUUCUACAGUCCGACGAUCCAAAAAGACCGCCGACAAUACACAGGAAAACUGAAUUCCGUAACCACUCUGAAAAUUUUCCGCAGCAAGUCAUACCUUUUUUUAAAAAGUUCAUACAGGUGAGGAACCAUGUUAAACGUUCAACAGAGGAUUGAGCAUCA
B3: chr11:134151495:134151596:+|3pUTR|ENSG00000166086|unk|FALSE|unique (ssRNA)
RNA: GGGAGUUCUACAGUCCGACGAUCUAGUGCCAUGGGAACCAGGUCUGAAAAAGUAGAGAGAAGUGAAAGUAGAGUCUGGGAAGUAGCUGCCUAUAACUGAGACUAGACGGAAAAGGAAUACUCGUGUAUUUUAAGAUAUGAAUGCAACAGAGGAUUGAGCAUCA
B4: ENSG00000107863:be:win_6251|3pUTR|ENSG00000107863|bound_else_gene|NA|bound_elsewhere_windowed (ssRNA)
RNA: GGGAGUUCUACAGUCCGACGAUCUAUUGUUAAAAUUAGAUAACUUACUUACAUUGAAUAAACGAAUGCGUUUUAUUGGUAACAGAUAUCAUUACAUUUACCAGUUUUAACACAGGUGGAUACAGAACUUCCAUUCUUUAGUCACAACAGAGGAUUGAGCAUCA
B5: chr1:180885099:180885158:+|3pUTR|ENSG00000143324|msi1_unk|total|mutant (ssRNA)
RNA: GGGAGUUCUACAGUCCGACGAUCAGCUGAAGCUAUGCCUUAUUAUGCAUCCACAUGUAUGGUCCCUGCCGCGUGACCUUUACCCGCUCUGAAUCAGAAGACAGAGCUAUUUCAGAGGCUCUGUGUGCCCUCACCCGACCGUUUCAACAGAGGAUUGAGCAUCA
B6: chr5:24509697:24509799:-|CDS|ENSG00000040731|unk|total|mutant (ssRNA)
RNA: GGGAGUUCUACAGUCCGACGAUCACUCGACUAUGAGAGCCGAAGACUUUAUACUCUGAAAGUCGAAGCAGAAAACACCCAUGCCGAUCCCCGUUUUUAUUACCCCGGACCAUUUAAAGAUACUACCACCGUGAAAAUCUCUAUCAACAGAGGAUUGAGCAUCA
B7: chr14:70725571:70725672:-|3pUTR|ENSG00000006432|unk|total|mutant (ssRNA)
RNA: GGGAGUUCUACAGUCCGACGAUCUAUUGUCCGAAACGCAUUACCAAAUGCAUCUCUUCUGUCGGAUCAGCGUAUUCCCCGAUCCGGAAUUCAAAUUAAUGAAAAUUCACAUAUGAAAGGAAAAUCCAUUGCUAUUUCUGGAGACAACAGAGGAUUGAGCAUCA
B8: chr1:150144965:150145066:+|3pUTR|ENSG00000136631|msi1|total|mutant (ssRNA)
RNA: GGGAGUUCUACAGUCCGACGAUCAGACUCCCAGAGUUGUCCUAACAAUAAGUCUGAGCCCAUCUCAACCCACUUUUCUCCGGCCGUCUUUAUGUAUCUGUCCGCACAAUCACUUCAGUUACUGAUGAAUUUUGUUGGGAUCUGCAACAGAGGAUUGAGCAUCA
B9: chr19:45224777:45224913:-|CDS|ENSG00000283632|control|control|control (ssRNA)
RNA: GGGAGUUCUACAGUCCGACGAUCGCCGAGCGCCUGGCCCGGGUGGGGCCCCCAGAAAGCGAGCCGGCCCGGGAAGCAUCUGCUAGUGCUCUGGACCAUGUGACCCGGCUCUGCCACCGUGUCGUGGCCAACCUGCUGUUCCAGCAACAGAGGAUUGAGCAUCA
B10: chrX:155122998:155123099:+|3pUTR|ENSG00000185515|unk|total|mutant (ssRNA)
RNA: GGGAGUUCUACAGUCCGACGAUCCUACAUACACACAAAUGAAUGCAUGUAAAAUCUGGUGAUACUGAAUAAAGUCUGUGGUCCCGACCGCAGUAUAAUAUUAUUGUCAAUGUCUUGGAUGUGAAGUUGUGCUACCGUUACAAACAACAGAGGAUUGAGCAUCA
B11: chr12:56416428:56416529:-|3pUTR|ENSG00000111602|msi1|FALSE|unique (ssRNA)
RNA: GGGAGUUCUACAGUCCGACGAUCAUGUUCUUACCCAUUCUUGGAAACGUCAGCUUUCUUGCUUCCUGUGCUUCCAGCCGAGGUAGGGCAAAGGUGAGAUUGAGAAAAUAGCCAUUCAGCUCAGGAAGGCUUCUAAGUAAAGGACAACAGAGGAUUGAGCAUCA
B12: chr9:72354534:72354635:-|3pUTR|ENSG00000107372|msi1|FALSE|unique (ssRNA)
RNA: GGGAGUUCUACAGUCCGACGAUCGUCCUAGUUUUUACUUUUAUUCUUAAAGCAUUCAGUUUUGCUUUCAAUUUUAUGUACCUUAGUUCUGAGUUAGACCUGCAGAUGUGUACAGAUAGUUCAUAUUUAUGUAUUGCACAUAAUCAACAGAGGAUUGAGCAUCA
B13: ENSG00000124766:be:win_2351|3pUTR|ENSG00000124766|bound_else_gene|NA|bound_elsewhere_windowed (ssRNA)
RNA: GGGAGUUCUACAGUCCGACGAUCCAGACCCCGGAGGCGUGGAGGAGAGGAGACUGUUUGAUGUGGUACAGGGGCAGUCAGUGGAGGGCGAGUGGUUUCGGAAAAAAAAAAAGAAAAAAAGAAAAAAAAAGAAAAAAAAAAGAUCAACAGAGGAUUGAGCAUCA
B14: chr21:44851366:44851434:-|CDS_3pUTR|ENSG00000183255|msi1_unk|total|mutant (ssRNA)
RNA: GGGAGUUCUACAGUCCGACGAUCAGGACAGUCCUCUCGUCUUGCAGACUGGUGACCUUCUAUUCCCUGUUCAUCUCUGUUUCCCGAUUCCGUCACUUGAAAUAAGAAAUCUUUGGGGUUUGGGCUUUUUUAUACUCUUCUCAGCAACAGAGGAUUGAGCAUCA
B15: chr13:52475664:52475769:+|3pUTR|ENSG00000136108|msi1|FALSE|bound_elsewhere (ssRNA)
RNA: GGGAGUUCUACAGUCCGACGAUCGCGUCCCUUGGACUGCCUGUUGAUUGAUGGAAAGUGUCUGCACUGACACUUUUCGUCAGUAGUCUGUAGUUUCGUGGCCUCUUUUGAUUAUAACUGGGGUCACCAAGAAGGUUUACUUAACAACAGAGGAUUGAGCAUCA
B16: chr5:179730620:179730726:+|3pUTR|ENSG00000127022|msi1_unk|total|mutant (ssRNA)
RNA: GGGAGUUCUACAGUCCGACGAUCGAGCUUUAAAUCAUCCGAGCUUAAAUUGUCAGAUCGUUCAUUGCCUUUCCAGGGUUAUUCCGUAAAGUUUGUUGAAAACAAAAACGCCUUUUCUUGGUUCUUUUUUCAGUUAUUUUGAAGCAACAGAGGAUUGAGCAUCA
B17: chr1:51356092:51356193:-|3pUTR|ENSG00000085832|unk|FALSE|unique (ssRNA)
RNA: GGGAGUUCUACAGUCCGACGAUCUUCAGAGAUAAGGAAAAAUAUUUUGCACAGAUUUACUCCACUAUGGAAAAGGGAUGCUGUAGGUUGAACCAUUAUAGCCUCAGAUUCGAUCUUUUCCUAACUAAAAAUAUUAAAGCCUCACAACAGAGGAUUGAGCAUCA
B18: ENSG00000107863:be:win_1401|CDS|ENSG00000107863|bound_else_gene|NA|bound_elsewhere_windowed (ssRNA)
RNA: GGGAGUUCUACAGUCCGACGAUCGCUAAUGAAGUAUUGUCCAAGAAGUGCAUCUCAAGGAGCACUGACGUCUCCAUCUGUUAGUUUUAGUAAUCAUAGAACUCGUUCAUGGGAUUAUAUUGAGGGACAGGAUGAAACCUUAGACAACAGAGGAUUGAGCAUCA
B19: chr21:43756582:43756683:+|3pUTR|ENSG00000160209|msi1|total|mutant (ssRNA)
RNA: GGGAGUUCUACAGUCCGACGAUCGCAUUCGAACUUUUGGUUCUUACUUUGCUGCUCGUUCCGUCCCUGGGGAUUUCAGAUCUCCGGCUGUUGUUUCACCGUAUGGGAGGGUUGAUGUGAGCUUGCUUGGAGACACACGGUGCACAACAGAGGAUUGAGCAUCA
B20: chr15:90882754:90882855:+|3pUTR|ENSG00000140564|msi1_unk|total|mutant (ssRNA)
RNA: GGGAGUUCUACAGUCCGACGAUCCACUUUGUGAUUAUUUCACUUCCGAUGCUGAUGAUUUGUUUUUGUAUUUUUAAUGGGGGCCGCAGCUGGACUACCCACGUUCUCACACCCACCGUCCGCCCUGCUCCUCCCUGGCUGCCCCAACAGAGGAUUGAGCAUCA
B21: chr1:33300114:33300153:+|3pUTR|ENSG00000160094|msi1_unk|FALSE|overlapping (ssRNA)
RNA: GGGAGUUCUACAGUCCGACGAUCCCCUGCCCCCAGCCCCCACAGACACACCCCAAUCUGAAAGCCAUGCGUGUCGGUGUAUAUAGGAACCAUGUACAGAGCCCAGAGAAGCCCCCUACAUCCCCCCGGGAAAAAAAAGAAAACCAACAGAGGAUUGAGCAUCA
B22: ENSG00000071054:stop:overlap|stop_codon|ENSG00000071054|stop_codon|NA|stop_codon (ssRNA)
RNA: GGGAGUUCUACAGUCCGACGAUCCUGGUGGCAGCAGUCAGGUUUAUUUCAUGACCUUAGGCAGGACUUCUCUUCUGAGCUGGUAGAAGCAGUGUGAUCCAGGGAUUACUGGCCUCCAGAGUCUUCAAGAUCCUGAGAACUUGGCAACAGAGGAUUGAGCAUCA

The assay deals with MSI1 full-length (mouse, UniProt Q61474 1-362). In words: nsRBNS (natural sequence RNA bind-n-seq); RBNS binding buffer (assumed for nsRBNS): 25 mM Tris pH 7.5, 150 mM KCl, 3 mM MgCl2, 0.01% Triton X-100, 500 ug/ml BSA, 20 U/ml SUPERase-In, 4 C; UNK is unkempt and MSI1 is Musashi-1; names of the RNAs are library labels; protein concentration not given here; high values mean tight binding.
Sequence of UniProt Q61474 (Q61474 whole entry): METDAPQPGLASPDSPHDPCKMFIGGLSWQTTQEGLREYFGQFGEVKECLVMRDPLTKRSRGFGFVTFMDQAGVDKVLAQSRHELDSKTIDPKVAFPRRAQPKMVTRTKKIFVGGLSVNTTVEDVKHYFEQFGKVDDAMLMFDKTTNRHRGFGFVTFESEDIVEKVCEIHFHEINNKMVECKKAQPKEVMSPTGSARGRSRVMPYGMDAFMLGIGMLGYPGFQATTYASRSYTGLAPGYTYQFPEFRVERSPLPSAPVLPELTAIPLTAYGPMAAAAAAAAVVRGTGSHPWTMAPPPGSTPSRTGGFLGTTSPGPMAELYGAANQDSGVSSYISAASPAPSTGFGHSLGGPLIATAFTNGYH
With B1, the binding signal amounted to 1.73 enrichment R.
Then B2, with 0.224 enrichment R; and B3, with 2.72 enrichment R; and B4, with 1.83 enrichment R.
On to B5, for which the binding signal is 0.335 enrichment R.
Regarding B6, the binding signal is 0.458 enrichment R.
In turn, B7 registered a binding signal of 0.227 enrichment R.
As for B8, the figure is 0.571 enrichment R.
As for B9, the figure is 0.572 enrichment R.
On to B10, for which the binding signal was determined as 0.194 enrichment R.
Then B11, with 0.454 enrichment R; and B12, with 42.6 enrichment R.
Then B13, with 0.761 enrichment R; and B14, with 0.45 enrichment R.
B15 returned a binding signal of 0.74 enrichment R.
As for B16, the figure is 0.274 enrichment R.
Consider B17, for which the binding signal was 0.404 enrichment R.
Then B18, with 3.62 enrichment R.
B19 gave a binding signal of 0.457 enrichment R.
Consider B20, for which the binding signal turned out to be 0.642 enrichment R.
As for B21, the figure is 1.04 enrichment R.
As for B22, the figure is 0.605 enrichment R.
